Measured values as given in article PMC9911399, “Two distinct binding modes provide the RNA-binding protein RbFox with extraordinary sequence specificity”.
Changes are numbered by the printed parent chain; changes in the protein carry UniProt numbers. The list shows a part of the results.

T1: RBFOX1 RRM (Homo sapiens, UniProt Q9NWB1 109-208)
T1 sequence: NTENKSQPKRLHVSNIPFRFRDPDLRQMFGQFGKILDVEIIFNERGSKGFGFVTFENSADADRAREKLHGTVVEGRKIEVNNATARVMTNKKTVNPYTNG

B1: CUGAAGA (DNA:RNA)
RNA: GGGAGACCGGAAUUCAGAUUGUCCCUGAAGAUUAAAUCCCGUCGUAGCCACCA
DNA 1: CAATCTGAATTCCGGTCTCCC
DNA 2: TGGTGGCTACGACGGGATT
B2: CCAUCGA (DNA:RNA)
RNA: B1 RNA with U26C, G27A, A28U, A29C
DNA 1: CAATCTGAATTCCGGTCTCCC
DNA 2: TGGTGGCTACGACGGGATT
B3: AGCGCUA (DNA:RNA)
RNA: B1 RNA with C25A, U26G, G27C, A28G, A29C, G30U
DNA 1: CAATCTGAATTCCGGTCTCCC
DNA 2: TGGTGGCTACGACGGGATT
B4: UUGAGCU (DNA:RNA)
RNA: B1 RNA with C25U, A29G, G30C, A31U
DNA 1: CAATCTGAATTCCGGTCTCCC
DNA 2: TGGTGGCTACGACGGGATT
B5: CGGCGGA (DNA:RNA)
RNA: B1 RNA with U26G, A28C, A29G
DNA 1: CAATCTGAATTCCGGTCTCCC
DNA 2: TGGTGGCTACGACGGGATT
B6: AAAAUAG (DNA:RNA)
RNA: B1 RNA with C25A, U26A, G27A, A29U, G30A, A31G
DNA 1: CAATCTGAATTCCGGTCTCCC
DNA 2: TGGTGGCTACGACGGGATT
B7: UUCCCAU (DNA:RNA)
RNA: B1 RNA with C25U, G27C, A28C, A29C, G30A, A31U
DNA 1: CAATCTGAATTCCGGTCTCCC
DNA 2: TGGTGGCTACGACGGGATT
B8: UUGUUAC (DNA:RNA)
RNA: B1 RNA with C25U, A28U, A29U, G30A, A31C
DNA 1: CAATCTGAATTCCGGTCTCCC
DNA 2: TGGTGGCTACGACGGGATT
B9: AAUAGCA (DNA:RNA)
RNA: B1 RNA with C25A, U26A, G27U, A29G, G30C
DNA 1: CAATCTGAATTCCGGTCTCCC
DNA 2: TGGTGGCTACGACGGGATT
B10: UGAUCAC (DNA:RNA)
RNA: GGGAGACCGGAAUUCAGAUUGUCCUGAUCACUUAAAUCCCGUCGUAGCCACCA
DNA 1: CAATCTGAATTCCGGTCTCCC
DNA 2: TGGTGGCTACGACGGGATT
B11: ACCGUGG (DNA:RNA)
RNA: B1 RNA with C25A, U26C, G27C, A28G, A29U, A31G
DNA 1: CAATCTGAATTCCGGTCTCCC
DNA 2: TGGTGGCTACGACGGGATT
B12: CCGGCGA (DNA:RNA)
RNA: B1 RNA with U26C, A28G, A29C
DNA 1: CAATCTGAATTCCGGTCTCCC
DNA 2: TGGTGGCTACGACGGGATT
B13: AGCCACC (DNA:RNA)
RNA: B10 RNA with U25A, A27C, U28C, C29A, A30C
DNA 1: CAATCTGAATTCCGGTCTCCC
DNA 2: TGGTGGCTACGACGGGATT
B14: AGAAUUA (DNA:RNA)
RNA: B1 RNA with C25A, U26G, G27A, A29U, G30U
DNA 1: CAATCTGAATTCCGGTCTCCC
DNA 2: TGGTGGCTACGACGGGATT
B15: GGGCUUG (DNA:RNA)
RNA: B1 RNA with C25G, U26G, A28C, A29U, G30U, A31G
DNA 1: CAATCTGAATTCCGGTCTCCC
DNA 2: TGGTGGCTACGACGGGATT
B16: AAUGAGG (DNA:RNA)
RNA: B1 RNA with C25A, U26A, G27U, A28G, A31G
DNA 1: CAATCTGAATTCCGGTCTCCC
DNA 2: TGGTGGCTACGACGGGATT
B17: GAUUAGA (DNA:RNA)
RNA: B1 RNA with C25G, U26A, G27U, A28U
DNA 1: CAATCTGAATTCCGGTCTCCC
DNA 2: TGGTGGCTACGACGGGATT
B18: ACUAAUU (DNA:RNA)
RNA: B1 RNA with C25A, U26C, G27U, G30U, A31U
DNA 1: CAATCTGAATTCCGGTCTCCC
DNA 2: TGGTGGCTACGACGGGATT
B19: AUGCACU (DNA:RNA)
RNA: B1 RNA with C25A, A28C, G30C, A31U
DNA 1: CAATCTGAATTCCGGTCTCCC
DNA 2: TGGTGGCTACGACGGGATT
B20: UCACUCU (DNA:RNA)
RNA: B10 RNA with G26C, U28C, C29U, A30C, C31U
DNA 1: CAATCTGAATTCCGGTCTCCC
DNA 2: TGGTGGCTACGACGGGATT
B21: GUCCCUG (DNA:RNA)
RNA: B1 RNA with C25G, G27C, A28C, A29C, G30U, A31G
DNA 1: CAATCTGAATTCCGGTCTCCC
DNA 2: TGGTGGCTACGACGGGATT
B22: ACCUUUC (DNA:RNA)
RNA: B10 RNA with U25A, G26C, A27C, C29U, A30U
DNA 1: CAATCTGAATTCCGGTCTCCC
DNA 2: TGGTGGCTACGACGGGATT
B23: UUUGUUU (DNA:RNA)
RNA: B1 RNA with C25U, G27U, A28G, A29U, G30U, A31U
DNA 1: CAATCTGAATTCCGGTCTCCC
DNA 2: TGGTGGCTACGACGGGATT
B24: UAAGAGC (DNA:RNA)
RNA: B10 RNA with G26A, U28G, C29A, A30G
DNA 1: CAATCTGAATTCCGGTCTCCC
DNA 2: TGGTGGCTACGACGGGATT
B25: GCUAUGG (DNA:RNA)
RNA: B1 RNA with C25G, U26C, G27U, A29U, A31G
DNA 1: CAATCTGAATTCCGGTCTCCC
DNA 2: TGGTGGCTACGACGGGATT
B26: AACCGAC (DNA:RNA)
RNA: B10 RNA with U25A, G26A, A27C, U28C, C29G
DNA 1: CAATCTGAATTCCGGTCTCCC
DNA 2: TGGTGGCTACGACGGGATT
B27: GGAAAUA (DNA:RNA)
RNA: B1 RNA with C25G, U26G, G27A, G30U
DNA 1: CAATCTGAATTCCGGTCTCCC
DNA 2: TGGTGGCTACGACGGGATT
B28: UAGCGGU (DNA:RNA)
RNA: B1 RNA with C25U, U26A, A28C, A29G, A31U
DNA 1: CAATCTGAATTCCGGTCTCCC
DNA 2: TGGTGGCTACGACGGGATT
B29: CCAAUUA (DNA:RNA)
RNA: B1 RNA with U26C, G27A, A29U, G30U
DNA 1: CAATCTGAATTCCGGTCTCCC
DNA 2: TGGTGGCTACGACGGGATT
B30: GCAUGAG (DNA:RNA)
RNA: B10 RNA with U25G, G26C, C29G, C31G
DNA 1: CAATCTGAATTCCGGTCTCCC
DNA 2: TGGTGGCTACGACGGGATT
B31: GACCUUG (DNA:RNA)
RNA: GGGAGACCGGAAUUCAGAUUGUCCGACCUUGUUAAAUCCCGUCGUAGCCACCA
DNA 1: CAATCTGAATTCCGGTCTCCC
DNA 2: TGGTGGCTACGACGGGATT

Biological target: T1, RBFOX1 RRM
Experiment: EMSA; HiTS-Eq, 1 nM pool, 10 min; buffer printed only for the single-RNA assays: 10 mM Tris pH 7.5, 150 mM NaCl, 3.4 mM EDTA, 0.001% NP-40, 30 C
Settings: tags: His6 N-terminal (pET28a); label: 5' 32P
Procedure, shortened: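 Purified wild-type or mutant RbFox RRM at increasing concentrations was equilibrated with 1 nM of 5′-radiolabelled RNA carrying 7 randomized nucleotides for 10 min in 50 µL. Unbound RNA was separated by 8% native PAGE and sequenced. Relative association constants came from read-count changes of each RNA species compared with the control reaction, normalised to the cognate motif.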

Binder | binding signal
B1 | 0.0172 KA relative to UGCAUGU
B2 | 0.00548 KA relative to UGCAUGU
B3 | 0.00499 KA relative to UGCAUGU
B4 | 0.0194 KA relative to UGCAUGU
B5 | 0.0227 KA relative to UGCAUGU
B6 | 0.00136 KA relative to UGCAUGU
B7 | 0.00778 KA relative to UGCAUGU
B8 | 0.0172 KA relative to UGCAUGU
B9 | 0.00868 KA relative to UGCAUGU
B10 | 0.00973 KA relative to UGCAUGU
B11 | 0.00904 KA relative to UGCAUGU
B12 | 0.0103 KA relative to UGCAUGU
B13 | 0.00144 KA relative to UGCAUGU
B14 | 0.00122 KA relative to UGCAUGU
B15 | 0.0531 KA relative to UGCAUGU
B16 | 0.0101 KA relative to UGCAUGU

Binder | binding signal
B17 | 0.0189 KA relative to UGCAUGU
B18 | 0.00106 KA relative to UGCAUGU
B19 | 0.0113 KA relative to UGCAUGU
B20 | 0.00609 KA relative to UGCAUGU
B21 | 0.0152 KA relative to UGCAUGU
B22 | 0.0028 KA relative to UGCAUGU
B23 | 0.0255 KA relative to UGCAUGU
B24 | 0.00886 KA relative to UGCAUGU
B25 | 0.0134 KA relative to UGCAUGU
B26 | 0.00215 KA relative to UGCAUGU
B27 | 0.00335 KA relative to UGCAUGU
B28 | 0.0132 KA relative to UGCAUGU
B29 | 0.0006 KA relative to UGCAUGU
B30 | 0.684 KA relative to UGCAUGU
B31 | 0.0144 KA relative to UGCAUGU
